According to PubChem BioAssay AID624417 (National Center for Advancing Translational Sciences (NCATS), 2012):
Hit rate of the full screen: of about 410,000 compounds, about 6,400 (1.6%) were called active. The shares of active, inactive and inconclusive entries below differ from those in the screen. Calls come from the whole dose curve; as a rule, active = well fitted inhibition curve with a large enough effect; inconclusive = small, poorly fitted or top-dose-only effect; inactive = no such curve, though single readings can be large or run the other way. Potencies of inconclusive entries are left out as doubtful fits.

target: Glucagon-like peptide 1 receptor (Homo sapiens) (UniProt P43220); assay: qHTS of GLP-1 Receptor Inverse Agonists (Inhibition Mode); details: HEK293 GLP-1R CRE-luciferase, luminescence, 24 h, GLP-1R form is constitutively active; series mostly up to 38.3 µM; note: nearly all actives have a fitted effect of over 55% in size
Chain of UniProt P43220 (P43220 whole entry, looked up): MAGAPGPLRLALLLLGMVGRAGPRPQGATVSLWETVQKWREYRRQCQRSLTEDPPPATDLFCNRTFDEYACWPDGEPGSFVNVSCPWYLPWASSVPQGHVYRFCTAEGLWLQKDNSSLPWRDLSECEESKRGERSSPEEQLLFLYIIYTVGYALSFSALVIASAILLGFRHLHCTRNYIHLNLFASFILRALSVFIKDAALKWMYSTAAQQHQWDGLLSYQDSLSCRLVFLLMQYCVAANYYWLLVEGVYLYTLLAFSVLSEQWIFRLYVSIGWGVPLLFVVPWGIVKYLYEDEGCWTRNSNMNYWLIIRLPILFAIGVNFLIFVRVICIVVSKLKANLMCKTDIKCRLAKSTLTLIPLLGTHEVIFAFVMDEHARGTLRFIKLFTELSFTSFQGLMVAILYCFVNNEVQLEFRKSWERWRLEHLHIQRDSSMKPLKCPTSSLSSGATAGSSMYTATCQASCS
Procedure, shortened: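 Assay principle: reduced luminescence from a cAMP-responsive reporter in HEK293 cells co-expressing a constitutively active GLP-1R. Conditions: 24 hr compound incubation, 37 deg C, 5% CO2.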
Potency is the fitted concentration of half-maximal effect; tags give direction and shape of the fitted curve.

Row | Compound | Potency
1 | CCc1ccc(-n2c(Cc3ccccc3)nnc2SCc2nc(-c3cccs3)no2)cc1 | inconclusive [inhibitor, single point]
2 | Nc1c(-c2ccccc2)nc(Cl)nc1-c1ccccc1 | inactive
3 | Cc1ccc(CNC(=O)C23CN(Cc4ccccc4)CC2C(c2ccc([N+](=O)[O-])cc2)=NO3)cc1 (stereo not drawn) | inconclusive [inhibitor, partial curve, poor fit]
4 | COc1ccc(C(NC(=O)C2CCN(CCOc3ccc(F)cc3)CC2)c2cccs2)cc1 (stereo not drawn) | inconclusive [inhibitor, single point]
5 | Cc1nn(-c2ccccc2)c(Cl)c1/C=C/C(=O)c1ccccc1 | inconclusive [inhibitor, single point]
6 | COc1cc(C(O)c2nc(/C=C/c3ccc(C(F)(F)F)cc3)cs2)ccc1F (stereo not drawn) | inconclusive [inhibitor, single point]
7 | COc1ccc(N(C)S(=O)(=O)c2cccc(C(=O)Nc3cc(OC)ccc3OC)c2)cc1 | inconclusive [inhibitor, single point]
8 | CC(C)CCOc1ccc(C(=O)NCC(c2ccco2)N(C)C)cc1 (stereo not drawn) | active: 7.94 µM
9 | COc1cc(C(=O)NNC(=O)c2ccco2)cc(OC)c1OC | inactive
10 | CC(=NCCc1c(C)[nH]c2ccc(OC(F)(F)F)cc12)C1=C(O)CC(c2ccccc2)CC1=O (stereo not drawn) | inconclusive [inhibitor, partial curve, poor fit]
11 | Cc1c(C(=O)Nc2nccs2)sc2nc(-c3cccs3)cc(C(F)(F)F)c12 | inactive
12 | COc1cc(Cl)c(C)cc1NC(=O)CNC(C)c1ccccc1OC (stereo not drawn) | inconclusive [inhibitor, partial curve, poor fit]
13 | Cc1ccc(C(=O)N/C(=C\c2ccc(Cl)cc2)C(=O)NCCCN2CCOCC2)cc1 | inconclusive [inhibitor, single point]
14 | COc1ccccc1N1CCN(CCCNC(=O)c2cnn(-c3ccccc3)c2C2CCN(C(=O)OC(C)(C)C)CC2)CC1 | inconclusive [inhibitor, partial curve, poor fit]
15 | O=C(CNc1cc(S(=O)(=O)N2CCOCC2)ccc1N1CCCC1)Nc1ccc(Cl)cc1F | inconclusive [inhibitor, partial curve, poor fit]
16 | O=[N+]([O-])c1cccc(C2Nc3ccccc3CO2)c1 (stereo not drawn) | inconclusive [inhibitor, partial curve, poor fit]
17 | CSc1cccc(CN2CCCC(CNC(=O)c3ccc(F)cc3)C2)c1 (stereo not drawn) | inconclusive [inhibitor, partial curve, poor fit]
18 | COCOCCn1cc(CN2CCS(=O)(=O)N(Cc3ccc(-c4ccccc4)cc3)C(C(C)C)C2=O)nn1 (stereo not drawn) | inconclusive [inhibitor, single point]
19 | Cc1ccc(CN2C(=O)CSC2c2ccc(F)cc2)cc1 (stereo not drawn) | inconclusive [inhibitor, single point]
20 | CCN(CC)C(=O)C1CCN(Cc2ccc(OCc3ccccc3)c(OC)c2)CC1 | inconclusive [inhibitor, single point]
21 | CC1CCCN(c2oc(-c3cccc4ccccc34)nc2C#N)C1 (stereo not drawn) | inactive
22 | Cc1cc(Cl)ccc1NC(=O)CN(c1ccccc1Br)S(C)(=O)=O | inconclusive [inhibitor, single point]

Row | Compound | Potency
23 | Cc1ccccc1C(=O)Nc1nc(-c2nnn(-c3ccc(C(C)C)cc3)c2C)ns1 | inactive
24 | O=C(Cn1ncc2c([nH]c3ccccc32)c1=O)NCC1CCN(Cc2ccc(F)cc2)CC1 | inactive
25 | Cc1ccc(C(C)C)c(OCCNCc2ccccc2)c1 | inconclusive [inhibitor, partial curve, poor fit]
26 | CCOc1ccccc1CNC(=O)C1CCN(S(=O)(=O)c2ccc3c(ccn3C)c2)CC1 | inactive
27 | O=C(CCn1cccc1)Nc1ccc(OC(F)(F)F)cc1 | inconclusive [inhibitor, partial curve]
28 | CCc1ccc(C(=O)N2CCC(c3nc4ccccc4s3)CC2)cc1 | inconclusive [inhibitor, single point]
29 | CC1CCC(NC(=O)COc2ccc(C(=O)c3ccccc3)cc2)CC1 (stereo not drawn) | inconclusive [inhibitor, partial curve, poor fit]
30 | CCSc1nsc(NC(=O)Nc2ccccc2Cl)n1 | inconclusive [inhibitor, single point]
31 | S=C(Nc1ccccn1)NC1CCCCC1 | inconclusive [inhibitor, partial curve, poor fit]
32 | CC1(C)C(=O)Nc2ccccc2N1C(=O)CSc1nnc2c(Cl)cc(Cl)cn12 | inactive
33 | O=c1[nH]cnc2sc(-c3ccccc3)cc12 | inactive
34 | O=C1/C(=C/c2cccnc2)CCc2c1[nH]c1ccccc21 | inconclusive [inhibitor, single point]
35 | CCc1nn(Cc2cc(C)ccc2C)c(=O)c2cc3cc(C)ccc3n12 | inactive
36 | Cc1cc(C)n(-c2ccc(C(=O)Nc3ccc(C)c(S(=O)(=O)N(C)C)c3)cc2)n1 | inconclusive [inhibitor, single point]
37 | CCC(C)c1nc2c(c(N3CCC3=O)c1-c1ccccc1)CCCC2 (stereo not drawn) | inconclusive [inhibitor, single point]
38 | CN(C)CCCn1c(=S)[nH]c2sc3c(c2c1=O)CCCC3 | inconclusive [inhibitor, single point]
39 | CCCCS/C(N)=N/N=C/c1ccccc1O | inconclusive [inhibitor, full curve, poor fit]
40 | CN(CC(=O)Nc1c(F)cccc1F)Cc1cccs1 | inactive
41 | Cc1ccc(NS(=O)(=O)c2ccc3c(c2)CCCN3C(=O)C2CCC2)c(C)c1 | inconclusive [inhibitor, partial curve, poor fit]
42 | C/C(=N\OC(=O)c1ccccc1)c1cc(-c2ccc(Cl)cc2)no1 | inactive
43 | CCOC(=O)c1sc(N2C(=O)C(O)=C(C(=O)c3ccco3)C2c2cccc([N+](=O)[O-])c2)nc1C (stereo not drawn) | inconclusive [inhibitor, full curve]
